The text below walks through data of article PMC4336329 (PLoS ONE, 2015).

Screen size: about 310,000 compounds; about 14,000 (4.5%) showed an effect of 50% or more. The effect is printed as a negative number. The list shows a part of the results.
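Note: peak tail current of the secondary pulse compared with the same well before compound.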

For the assay, the target named is human ether-à-go-go-related gene (hERG) potassium channel (human, UniProt Q12809). Briefly: primary screen, population patch clamp on CHO cells stably expressing hERG.
Sequence of human ether-à-go-go-related gene (hERG) potassium channel (Q12809 whole entry, looked up): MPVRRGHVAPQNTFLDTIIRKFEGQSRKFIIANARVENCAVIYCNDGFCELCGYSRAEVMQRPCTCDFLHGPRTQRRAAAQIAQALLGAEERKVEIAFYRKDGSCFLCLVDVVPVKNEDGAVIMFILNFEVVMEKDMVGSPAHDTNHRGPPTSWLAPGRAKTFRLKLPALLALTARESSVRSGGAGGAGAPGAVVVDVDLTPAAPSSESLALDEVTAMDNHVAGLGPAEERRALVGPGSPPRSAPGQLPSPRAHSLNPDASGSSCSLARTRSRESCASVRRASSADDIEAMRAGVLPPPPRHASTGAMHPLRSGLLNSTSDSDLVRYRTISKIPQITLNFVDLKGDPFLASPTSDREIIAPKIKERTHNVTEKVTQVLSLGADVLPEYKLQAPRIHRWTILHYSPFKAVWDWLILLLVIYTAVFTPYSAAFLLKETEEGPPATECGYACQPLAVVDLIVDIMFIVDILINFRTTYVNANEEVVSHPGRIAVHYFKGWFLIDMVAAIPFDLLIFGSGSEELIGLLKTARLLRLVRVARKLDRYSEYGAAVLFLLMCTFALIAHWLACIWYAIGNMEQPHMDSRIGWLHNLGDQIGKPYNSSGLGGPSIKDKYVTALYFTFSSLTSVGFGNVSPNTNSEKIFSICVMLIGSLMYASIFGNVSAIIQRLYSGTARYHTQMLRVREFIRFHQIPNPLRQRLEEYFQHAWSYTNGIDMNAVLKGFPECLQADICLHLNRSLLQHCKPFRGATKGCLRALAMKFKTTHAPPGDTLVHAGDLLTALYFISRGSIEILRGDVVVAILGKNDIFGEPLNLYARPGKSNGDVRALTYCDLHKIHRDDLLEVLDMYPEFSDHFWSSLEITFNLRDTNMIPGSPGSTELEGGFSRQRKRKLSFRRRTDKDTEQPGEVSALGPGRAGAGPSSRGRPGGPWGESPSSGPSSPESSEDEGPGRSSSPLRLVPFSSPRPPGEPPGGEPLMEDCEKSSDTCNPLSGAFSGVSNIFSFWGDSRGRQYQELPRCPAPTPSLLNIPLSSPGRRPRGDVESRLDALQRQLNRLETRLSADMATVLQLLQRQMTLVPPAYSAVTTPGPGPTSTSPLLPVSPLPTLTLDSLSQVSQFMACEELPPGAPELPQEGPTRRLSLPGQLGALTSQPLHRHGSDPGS
On to `Cc1c(NC(=O)C(C)OC(=O)c2cccc(S(=O)(=O)N3CCOCC3)c2)c(=O)n(-c2ccccc2)n1C` (stereo not shown), for which the “hERG current change (%, negative = inhibition) at 10uM” value stood at 8.34%. The result for `C=CCN1C(=O)CSc2ccc(C(=O)N3CCC4(CC3)OCCO4)cc21` reads -4.68%; that for `Cc1ccc(N2CCN(CC(O)COc3cccc(C)c3)CC2)cc1` (stereo not shown), -55.1%. The result for `Cc1cccc[n+]1CCCCCCCCCC[n+]1ccccc1C.[Br-]` reads 37.8%. The result for `Nc1c(C(=O)CSc2nnc(-c3ccccc3F)o2)c(=O)[nH]c(=O)n1C1CC1` reads 15.7%; that for `Cn1c(CCN2CCCCC2)nc2cc(NS(=O)(=O)c3ccc(Cl)cc3)ccc21`, -73.8%; that for `OC(CNCc1ccc(Cl)cc1)C(F)(F)F` (stereo not shown), 4.86%. `Cc1cc(N2CCN(C)CC2)nc2ccc(NC(=O)c3ccc4c(c3)OCO4)cc12`: the “hERG current change (%, negative = inhibition) at 10uM” value is -62.2%. The result for `CC(C)NC(=O)NC(=O)COC(=O)/C=C/c1ccccc1[N+](=O)[O-]` reads 22.4%; that for `O=C(c1ccccc1Cl)N(Cc1ccccc1F)N1C(=O)CCCC1=O`, 11.1%. The result for `CCN(CC(=O)NCc1cccs1)S(=O)(=O)c1ccc([N+](=O)[O-])cc1` reads -68.2%; that for `CC(=O)N1CCN(c2ccc(Oc3ncnc4sccc34)cc2)CC1`, -0.203%.

For `CC(=O)c1cccc(NC(=O)C(C)N2CCc3ccccc3C2)c1` (stereo not shown), the “hERG current change (%, negative = inhibition) at 10uM” value is on record as 4.43%.

Consider `O=C(c1ccc(-c2nnc(Nc3cccc(Cl)c3)c3ccccc23)cc1)N1C[C@H]2C[C@H](C1)c1cccc(=O)n1C2`, for which the “hERG current change (%, negative = inhibition) at 10uM” value is on record as -7.75%.

Turning to `CCOC(=O)NC(=O)COC(=O)CCCc1nc2ccccc2s1`, the “hERG current change (%, negative = inhibition) at 10uM” value is -4.56%. Take `COC(=O)CCC(=O)N(C)CC1CCCN(CCc2cccc(C(F)(F)F)c2)C1` (stereo not shown): the “hERG current change (%, negative = inhibition) at 10uM” value is recorded as -61.9%.

Regarding `Cc1cc(C(C)(C)C)cc(C)c1C(=O)O`, the “hERG current change (%, negative = inhibition) at 10uM” value worked out at 0.0126%.

Consider `CCCc1nnc(NS(=O)(=O)c2ccccc2)s1`, for which the “hERG current change (%, negative = inhibition) at 10uM” value is given as 14.5%.

In the case of `COC(=O)Nc1ccc(S(=O)(=O)n2cnc3ccccc32)cc1`, the “hERG current change (%, negative = inhibition) at 10uM” value was -4.93%. The result for `Cc1cc(C(=O)N/N=C/c2cccc3ccccc23)c(C)o1` reads 7.15%; that for `O=C(NC1CC2CCC1C2)C1COc2ccccc2O1` (stereo not shown), -8.46%; that for `O=C(N/N=C/c1cccnc1)c1ccco1`, 13%. In the case of `O=S(=O)(NC1CCCC1)c1ccccc1Cl`, the “hERG current change (%, negative = inhibition) at 10uM” value is recorded as -17%. The result for `Cc1ccc(S(=O)(=O)NCC(=O)N(CC(=O)NCc2ccco2)Cc2ccccc2)cc1` reads -10.2%; that for `CCOc1ccc(-n2ccnc2SCC(=O)N2CCCc3ccccc32)cc1`, -13.7%; that for `Cc1ccc(NC(=S)N2CCC(C(N)=O)(N3CCCCC3)CC2)c(C)c1`, 4.19%. The result for `O=C(Nc1cc(S(=O)(=O)N2CCOCC2)ccc1N1CCCC1)c1cnccn1` reads -4.43%. The result for `COCCn1c(-c2ccc(-c3ccc([N+](=O)[O-])cc3Br)o2)nc2c1c(=O)[nH]c(=O)n2CC(C)C` reads -4.7%; that for `CC(N=C1NS(=O)(=O)c2ccccc21)C(=O)NCc1ccc2c(c1)OCO2` (stereo not shown), 8.21%. `O=C(NC1CCc2ccccc21)c1cc(COc2ccc(F)cc2Cl)on1` (stereo not shown): the “hERG current change (%, negative = inhibition) at 10uM” value was 8.94%. The result for `Cc1cc(C)nc(SCC(=O)N/N=C/c2cccc([N+](=O)[O-])c2)n1` reads -0.792%. As to `CCCCCOc1ccc(CSC(=N)N)cc1[N+](=O)[O-].Cl`, the “hERG current change (%, negative = inhibition) at 10uM” value is on record as -56.7%.

Turning to `COc1ccc(-c2c(-c3ccc(OC)cc3O)nc(C)nc2C(F)(F)F)cc1`, the “hERG current change (%, negative = inhibition) at 10uM” value is recorded as -6.07%. Consider `Cn1c(C(=O)Nc2ccc3c(c2)OCO3)cc2sccc21`, for which the “hERG current change (%, negative = inhibition) at 10uM” value is reported as -2.75%. The result for `COC(=O)Cc1ccc(NC(=S)NCCSc2ccc(Cl)cc2)cc1` reads -8.33%; that for `COc1ccc(OC)c(NC(=O)Cn2c(C)nc3ccccc3c2=O)c1`, 6.9%. The result for `Cn1c2[n+](c3ccc(Cl)cc3c1=O)Cc1ccccc1-2.[Cl-]` reads -12.8%; that for `COCCNC(=O)c1c(N)n(/N=C/c2ccc(F)cc2)c2nc3ccccc3nc12`, -0.595%. The result for `O=C(CS(=O)CC(=O)NC12CC3CC(CC(C3)C1)C2)Nc1ccc(F)cc1` (stereo not shown) reads -6.85%; that for `COc1cccc(-n2c(Cc3cc(=O)[nH]c(=O)[nH]3)nnc2SCC(=O)N2CCCCC2)c1`, 8.75%. Consider `COc1ccccc1C(=O)NC(CCSC)C(=O)OCC(=O)N1CCCC1=O` (stereo not shown), for which the “hERG current change (%, negative = inhibition) at 10uM” value amounted to 8.9%. `CCC1(CC)C(=O)C2=C3C1[C@H](C(=O)OC)C=C(C(=O)OC)C[C@H]3n1c(=O)n(-c3ccccc3)c(=O)n1[C@H]2C` (stereo partly shown): the “hERG current change (%, negative = inhibition) at 10uM” value is recorded as -2.64%. Consider `CC(=O)c1ccc(S(=O)(=O)N2CCN(C(C)=O)CC2)cc1`, for which the “hERG current change (%, negative = inhibition) at 10uM” value is listed as 11%.
